# Reference: the supplement of paper PMC8728848
# Some of the results follow.
# Key:
# Assay in all cases: glycan array binding signal (z-score within array); higher = stronger binding
# Conditions in all cases: glycan notation: IUPAC condensed, linker removed
# [1] = biological target: Gal(b1-3)GlcNAc(b1-6)GalNAc
# In short: (§1)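 The Consortium for Functional Glycomics database supplied 3228 glycan arrays, of which those lacking an available protein sequence were dropped. The binding signal, a within-array Z-score, was averaged across arrays of the same protein sequence and across linkers. Negative scores can be read as non-binding.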
# [2] = biological target: Gal(b1-3)GlcNAc(b1-6)[Gal(b1-3)]GalNAc
# In short: as §1
# [3] = biological target: Gal(b1-3)GlcNAc6S
# In short: as §1
# [4] = biological target: Gal(b1-3)[Fuc(a1-4)]GlcNAc
# In short: as §1
# [5] = biological target: Gal(b1-3)[Fuc(a1-4)]GlcNAc(b1-2)Man
# In short: as §1
# [6] = biological target: Gal(b1-3)[Fuc(a1-4)]GlcNAc(b1-2)Man(a1-3)[Gal(b1-3)[Fuc(a1-4)]GlcNAc(b1-2)Man(a1-6)]Man(b1-4)GlcNAc(b1-4)[Fuc(a1-6)]GlcNAc
# In short: as §1
# [7] = biological target: Gal(b1-3)[Fuc(a1-4)]GlcNAc(b1-3)Gal(b1-3)[Fuc(a1-4)]GlcNAc
# In short: as §1
# [8] = biological target: Gal(b1-3)[Fuc(a1-4)]GlcNAc(b1-3)Gal(b1-4)[Fuc(a1-3)]GlcNAc
# In short: as §1
# [9] = biological target: Gal(b1-3)[Fuc(a1-4)]GlcNAc(b1-6)GalNAc
# In short: as §1
# [10] = biological target: Gal(b1-3)[GlcNAc(b1-6)]GalNAc
# In short: as §1
# [11] = biological target: Gal(b1-3)[Neu5Ac(a2-6)]GalNAc
# In short: as §1
# [12] = biological target: Gal(b1-3)[Neu5Ac(a2-6)]GlcNAc(b1-4)Gal(b1-4)Glc
# In short: as §1
# [13] = biological target: Gal(b1-3)[Neu5Ac(b2-6)]GalNAc
# In short: as §1
# [14] = biological target: Gal(b1-4)Gal
# In short: as §1
# [15] = biological target: Gal(b1-4)GalNAc(a1-3)[Fuc(a1-2)]Gal(b1-4)GlcNAc
# In short: as §1
# [16] = biological target: Gal(b1-4)GalNAc(b1-3)[Fuc(a1-2)]Gal(b1-4)GlcNAc
# In short: as §1
# [17] = biological target: Gal(b1-4)Glc
# In short: as §1
# [18] = biological target: Gal(b1-4)Glc6S
# In short: as §1
# [19] = biological target: Gal(b1-4)GlcNAc
# In short: as §1
# [20] = biological target: Gal(b1-4)GlcNAc(a1-6)Gal(b1-4)GlcNAc
# In short: as §1
# [21] = biological target: Gal(b1-4)GlcNAc(b1-2)Man
# In short: as §1
# [22] = biological target: Gal(b1-4)GlcNAc(b1-2)Man(a1-3)Man(b1-4)GlcNAc(b1-4)GlcNAc
# In short: as §1
# [23] = biological target: Gal(b1-4)GlcNAc(b1-2)Man(a1-3)[Gal(b1-4)GlcNAc(b1-2)Man(a1-6)]Man(b1-4)GlcNAc(b1-4)GlcNAc
# In short: as §1
# [24] = biological target: Gal(b1-4)GlcNAc(b1-2)Man(a1-3)[Gal(b1-4)GlcNAc(b1-2)Man(a1-6)]Man(b1-4)GlcNAc(b1-4)[Fuc(a1-6)]GlcNAc
# In short: as §1
# [25] = biological target: Gal(b1-4)GlcNAc(b1-2)Man(a1-3)[Gal(b1-4)GlcNAc(b1-2)Man(a1-6)][Gal(b1-4)GlcNAc(b1-4)]Man(b1-4)GlcNAc(b1-4)[Fuc(a1-6)]GlcNAc
# In short: as §1
# [26] = biological target: Gal(b1-4)GlcNAc(b1-2)Man(a1-3)[Gal(b1-4)GlcNAc(b1-2)Man(a1-6)][GlcNAc(b1-4)]Man(b1-4)GlcNAc(b1-4)[Fuc(a1-6)]GlcNAc
# In short: as §1
# [27] = biological target: Gal(b1-4)GlcNAc(b1-2)Man(a1-3)[GlcNAc(b1-2)Man(a1-6)]Man(b1-4)GlcNAc(b1-4)GlcNAc
# In short: as §1
# [28] = biological target: Gal(b1-4)GlcNAc(b1-2)Man(a1-3)[GlcNAc(b1-4)][Gal(b1-4)GlcNAc(b1-2)Man(a1-6)]Man(b1-4)GlcNAc(b1-4)GlcNAc
# In short: as §1
# [29] = biological target: Gal(b1-4)GlcNAc(b1-2)Man(a1-3)[Man(a1-6)]Man(b1-4)GlcNAc(b1-4)GlcNAc
# In short: as §1
# [30] = biological target: Gal(b1-4)GlcNAc(b1-2)Man(a1-6)Man(b1-4)GlcNAc(b1-4)GlcNAc
# In short: as §1
# [31] = biological target: Gal(b1-4)GlcNAc(b1-2)Man(a1-6)[GlcNAc(b1-2)Man(a1-3)]Man(b1-4)GlcNAc(b1-4)GlcNAc
# In short: as §1
# [32] = biological target: Gal(b1-4)GlcNAc(b1-2)Man(a1-6)[Man(a1-3)]Man(b1-4)GlcNAc(b1-4)GlcNAc
# In short: as §1
# [33] = biological target: Gal(b1-4)GlcNAc(b1-2)[Gal(b1-4)GlcNAc(b1-4)]Man(a1-3)[Gal(b1-4)GlcNAc(b1-2)Man(a1-6)]Man(b1-4)GlcNAc(b1-4)GlcNAc
# In short: as §1
# [34] = biological target: Gal(b1-4)GlcNAc(b1-2)[Gal(b1-4)GlcNAc(b1-4)]Man(a1-3)[Gal(b1-4)GlcNAc(b1-2)[Gal(b1-4)GlcNAc(b1-6)]Man(a1-6)]Man(b1-4)GlcNAc(b1-4)GlcNAc
# In short: as §1
# [35] = biological target: Gal(b1-4)GlcNAc(b1-2)[Gal(b1-4)GlcNAc(b1-4)]Man(a1-3)[GlcNAc(b1-4)][Gal(b1-4)GlcNAc(b1-2)Man(a1-6)]Man(b1-4)GlcNAc(b1-4)GlcNAc
# In short: as §1
# [36] = biological target: Gal(b1-4)GlcNAc(b1-2)[Gal(b1-4)GlcNAc(b1-4)]Man(a1-3)[GlcNAc(b1-4)][Gal(b1-4)GlcNAc(b1-2)[Gal(b1-4)GlcNAc(b1-6)]Man(a1-6)]Man(b1-4)GlcNAc(b1-4)GlcNAc
# In short: as §1
# [37] = biological target: Gal(b1-4)GlcNAc(b1-2)[Gal(b1-4)GlcNAc(b1-6)]Man(a1-6)[Gal(b1-4)GlcNAc(b1-2)Man(a1-3)]Man(b1-4)GlcNAc(b1-4)GlcNAc
# In short: as §1
# [38] = biological target: Gal(b1-4)GlcNAc(b1-2)[Gal(b1-4)GlcNAc(b1-6)]Man(a1-6)[Gal(b1-4)GlcNAc(b1-2)Man(a1-3)]Man(b1-4)GlcNAc(b1-4)[Fuc(a1-6)]GlcNAc
# In short: as §1
# [39] = biological target: Gal(b1-4)GlcNAc(b1-2)[Gal(b1-4)GlcNAc(b1-6)]Man(a1-6)[GlcNAc(b1-4)][Gal(b1-4)GlcNAc(b1-2)Man(a1-3)]Man(b1-4)GlcNAc(b1-4)GlcNAc
# In short: as §1
# [40] = biological target: Gal(b1-4)GlcNAc(b1-2)[Gal(b1-4)GlcNAc(b1-6)]Man(a1-6)[GlcNAc(b1-4)][Gal(b1-4)GlcNAc(b1-2)[Gal(b1-4)GlcNAc(b1-4)]Man(a1-3)]Man(b1-4)GlcNAc(b1-4)[Fuc(a1-6)]GlcNAc
# In short: as §1
# [41] = biological target: Gal(b1-4)GlcNAc(b1-3)Gal(b1-3)GalNAc
# In short: as §1
# [42] = biological target: Gal(b1-4)GlcNAc(b1-3)Gal(b1-3)GlcNAc
# In short: as §1
# [43] = biological target: Gal(b1-4)GlcNAc(b1-3)Gal(b1-4)Glc
# In short: as §1
# [44] = biological target: Gal(b1-4)GlcNAc(b1-3)Gal(b1-4)GlcNAc
# In short: as §1
# [45] = biological target: Gal(b1-4)GlcNAc(b1-3)Gal(b1-4)GlcNAc(b1-2)Man(a1-3)[Gal(b1-4)GlcNAc(b1-3)Gal(b1-4)GlcNAc(b1-2)Man(a1-6)]Man(b1-4)GlcNAc(b1-4)GlcNAc
# In short: as §1
binder,measurement,setting,value
"Apa (Mycobacterium tuberculosis), Rv1860 (protein) MHQVDPNLTRRKGRLAALAIAAMASASLVTVAVPATANADPEPAPPVPTTAASPPSTAAAPPAPATPVAPPPPAAANTPNAQPGDPNAAPPPADPNAPPPPVIAPNAPQPVRIDNPVGGFSFALPAGWVESDAAHFDYGSALLSKTTGDPPFPGQPPPVANDTRIVLGRLDQKLYASAEATDSKAAARLGSDMGEFYMPYPGTRINQETVSLDANGVSGSASYYEVKFSDPSKPNGQIWTGVIGSPAANAPDAGPPQRWFVVWLGTANNPVDKGAAKALAESIRPLVAPPPAPAPAPAEPAPAPAPAGEVAPTPTTPTPQRTLPA",glycan array binding signal (z-score),[1],-0.451
same,glycan array binding signal (z-score),[2],-0.074
same,glycan array binding signal (z-score),[3],-0.259
same,glycan array binding signal (z-score),[4],-0.388
same,glycan array binding signal (z-score),[5],1.49
same,glycan array binding signal (z-score),[6],-0.158
same,glycan array binding signal (z-score),[7],-0.052
same,glycan array binding signal (z-score),[8],0.702
same,glycan array binding signal (z-score),[9],-0.162
same,glycan array binding signal (z-score),[10],-0.214
same,glycan array binding signal (z-score),[11],-0.007
same,glycan array binding signal (z-score),[12],-0.581
same,glycan array binding signal (z-score),[13],-0.114
same,glycan array binding signal (z-score),[14],-0.51
same,glycan array binding signal (z-score),[15],-0.467
same,glycan array binding signal (z-score),[16],5.04
same,glycan array binding signal (z-score),[17],0.077
same,glycan array binding signal (z-score),[18],-0.221
same,glycan array binding signal (z-score),[19],0.425
same,glycan array binding signal (z-score),[20],0.281
same,glycan array binding signal (z-score),[21],0.451
same,glycan array binding signal (z-score),[22],-0.298
same,glycan array binding signal (z-score),[23],-0.496
same,glycan array binding signal (z-score),[24],-0.333
same,glycan array binding signal (z-score),[25],-0.339
same,glycan array binding signal (z-score),[26],-0.117
same,glycan array binding signal (z-score),[27],-0.224
same,glycan array binding signal (z-score),[28],-0.591
same,glycan array binding signal (z-score),[29],-0.42
same,glycan array binding signal (z-score),[30],-0.345
same,glycan array binding signal (z-score),[31],-0.403
same,glycan array binding signal (z-score),[32],-0.426
same,glycan array binding signal (z-score),[33],-0.527
same,glycan array binding signal (z-score),[34],-0.487
same,glycan array binding signal (z-score),[35],-0.282
same,glycan array binding signal (z-score),[36],0.024
same,glycan array binding signal (z-score),[37],-0.288
same,glycan array binding signal (z-score),[38],0.339
same,glycan array binding signal (z-score),[39],-0.459
same,glycan array binding signal (z-score),[40],0.234
same,glycan array binding signal (z-score),[41],-0.355
same,glycan array binding signal (z-score),[42],-0.238
same,glycan array binding signal (z-score),[43],-0.013
same,glycan array binding signal (z-score),[44],-0.271
same,glycan array binding signal (z-score),[45],0.537
